Test results taken from a collection of fitness landscapes (doi:10.1016/j.celrep.2020.107928).
In all, about 81,000 sequences were measured (“one-hybrid fitness for binding NBS DNA”: median about -0.1, highest 2% from about 0.36 on). This is one part of the list.

B1: Caulobacter ParB omega fusion; a variant is named by its letters at X, in order, B8GW30 (parent)
chain: MESVVVGEPGMSEGRRGLGRGLSALLGEVDAAPAQAPGEQLGGSREAPIEILQRNPDQPRRTFREEDLEDLSNSIREKGVLQPILVRPSPDTAGEYQIVAGERAWRAAQRAGLKTVPIMVRELDDLAVLEIGIIENVQRADLNVLEEALSYKVLMEKFERTQENIAQTIGKSXSHVANXMRLLXLPDEVQSYLVSGELTAXHARAIAAAADPVALAKQIIEGGLSVRETEALARKAPNLSAGKSKGGRPPRVKDTDTQALESDLSSVLGLDVSIDHRGSTGTLTITYATLEQLDDLCNRLTRGI

Variants of: B1
Experiment: one-hybrid fitness for binding NBS DNA (the Noc-binding site; scaled: cognate 1, non-cognate 0); higher = stronger binding
Conditions: with NBS DNA site
Outline: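 The reporter was HIS3, with the binding site 19 bp from the promoter, in E. coli USO used for bacterial one-hybrid selection of Caulobacter ParB libraries with four specificity codons randomised. Growth was on M9 lacking histidine, with 0.1 mM IPTG and 5 mM 3-AT, for 48 hours at 37°C. Illumina sequencing covered plasmids before and after selection; three replicate libraries were pooled and variants with under 10 reads dropped. A fitness score is the log change in variant-to-wild-type read ratio, rescaled to the cognate and non-cognate references.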

Variant | one-hybrid fitness for binding NBS DNA
PLGH | ≤ 0.2
DYRY | ≤ 0.2
IGPF | ≤ 0.2
QDVT | ≤ 0.2
LCTK | ≤ 0.2
RTGR | 0.622
TAVM | ≤ 0.2
NVYW | ≤ 0.2
KFSD | ≤ 0.2
AHNP | ≤ 0.2
WSRF | ≤ 0.2
QTHR | 0.877
GNDT | ≤ 0.2
QRDP | ≤ 0.2
HLGR | ≤ 0.2
KSKC | ≤ 0.2
LATK | ≤ 0.2
IVNV | ≤ 0.2
NRSS | ≤ 0.2
LESN | ≤ 0.2
QQNE | ≤ 0.2

Variant | one-hybrid fitness for binding NBS DNA
DPHQ | ≤ 0.2
TFTC | ≤ 0.2
WMKC | ≤ 0.2
HAES | ≤ 0.2
WYQG | ≤ 0.2
EHKL | ≤ 0.2
DAAW | ≤ 0.2
IEHS | ≤ 0.2
VAAP | ≤ 0.2
KWCV | ≤ 0.2
RNEE | ≤ 0.2
PQHL | ≤ 0.2
LQCQ | ≤ 0.2
MGRG | ≤ 0.2
HRFI | ≤ 0.2
IDVG | ≤ 0.2
GGHY | ≤ 0.2
TGCG | ≤ 0.2
SCGE | ≤ 0.2
HLIS | ≤ 0.2
VWLM | ≤ 0.2

Variant | one-hybrid fitness for binding NBS DNA
VYTY | ≤ 0.2
HYQC | ≤ 0.2
TATH | ≤ 0.2
QHSW | ≤ 0.2
SRTC | ≤ 0.2
SMET | ≤ 0.2
QLIS | 0.207
SDGV | ≤ 0.2
VIIS | ≤ 0.2
TSID | ≤ 0.2
RRFI | ≤ 0.2
RRKG | 0.461
QMTL | ≤ 0.2
AFNP | ≤ 0.2
SSRI | ≤ 0.2
SRYL | ≤ 0.2
EQES | ≤ 0.2
QVRN | ≤ 0.2
LLSD | ≤ 0.2
QKPG | ≤ 0.2
TRPG | ≤ 0.2

Variant | one-hybrid fitness for binding NBS DNA
GHSE | ≤ 0.2
NTMT | ≤ 0.2
TTRQ | ≤ 0.2
TTRG | ≤ 0.2
YIVC | ≤ 0.2
FGSR | ≤ 0.2
KRYV | ≤ 0.2
PGHC | ≤ 0.2
TLYS | ≤ 0.2
VEPI | ≤ 0.2
KPSS | ≤ 0.2
LDTS | ≤ 0.2
GWRG | ≤ 0.2
KRAD | ≤ 0.2
HCWL | ≤ 0.2
MGTR | ≤ 0.2
RLPR | ≤ 0.2
EQKG | ≤ 0.2
KAAC | ≤ 0.2
VRLV | ≤ 0.2
PQSA | ≤ 0.2
